Measurements as given in publication PMC5730846.
Numbering of substitutions follows the chain as printed. These are yes or no findings as the source states them, for the method shown. In cells and extracts the contact can be indirect. Some binding calls cover weakened binding; strength is not graded here. For some assays here: Sequences can lack the tags named with a protein.

Chains of the proteins cited; added tags and fusions are not shown.
UniProt P49815: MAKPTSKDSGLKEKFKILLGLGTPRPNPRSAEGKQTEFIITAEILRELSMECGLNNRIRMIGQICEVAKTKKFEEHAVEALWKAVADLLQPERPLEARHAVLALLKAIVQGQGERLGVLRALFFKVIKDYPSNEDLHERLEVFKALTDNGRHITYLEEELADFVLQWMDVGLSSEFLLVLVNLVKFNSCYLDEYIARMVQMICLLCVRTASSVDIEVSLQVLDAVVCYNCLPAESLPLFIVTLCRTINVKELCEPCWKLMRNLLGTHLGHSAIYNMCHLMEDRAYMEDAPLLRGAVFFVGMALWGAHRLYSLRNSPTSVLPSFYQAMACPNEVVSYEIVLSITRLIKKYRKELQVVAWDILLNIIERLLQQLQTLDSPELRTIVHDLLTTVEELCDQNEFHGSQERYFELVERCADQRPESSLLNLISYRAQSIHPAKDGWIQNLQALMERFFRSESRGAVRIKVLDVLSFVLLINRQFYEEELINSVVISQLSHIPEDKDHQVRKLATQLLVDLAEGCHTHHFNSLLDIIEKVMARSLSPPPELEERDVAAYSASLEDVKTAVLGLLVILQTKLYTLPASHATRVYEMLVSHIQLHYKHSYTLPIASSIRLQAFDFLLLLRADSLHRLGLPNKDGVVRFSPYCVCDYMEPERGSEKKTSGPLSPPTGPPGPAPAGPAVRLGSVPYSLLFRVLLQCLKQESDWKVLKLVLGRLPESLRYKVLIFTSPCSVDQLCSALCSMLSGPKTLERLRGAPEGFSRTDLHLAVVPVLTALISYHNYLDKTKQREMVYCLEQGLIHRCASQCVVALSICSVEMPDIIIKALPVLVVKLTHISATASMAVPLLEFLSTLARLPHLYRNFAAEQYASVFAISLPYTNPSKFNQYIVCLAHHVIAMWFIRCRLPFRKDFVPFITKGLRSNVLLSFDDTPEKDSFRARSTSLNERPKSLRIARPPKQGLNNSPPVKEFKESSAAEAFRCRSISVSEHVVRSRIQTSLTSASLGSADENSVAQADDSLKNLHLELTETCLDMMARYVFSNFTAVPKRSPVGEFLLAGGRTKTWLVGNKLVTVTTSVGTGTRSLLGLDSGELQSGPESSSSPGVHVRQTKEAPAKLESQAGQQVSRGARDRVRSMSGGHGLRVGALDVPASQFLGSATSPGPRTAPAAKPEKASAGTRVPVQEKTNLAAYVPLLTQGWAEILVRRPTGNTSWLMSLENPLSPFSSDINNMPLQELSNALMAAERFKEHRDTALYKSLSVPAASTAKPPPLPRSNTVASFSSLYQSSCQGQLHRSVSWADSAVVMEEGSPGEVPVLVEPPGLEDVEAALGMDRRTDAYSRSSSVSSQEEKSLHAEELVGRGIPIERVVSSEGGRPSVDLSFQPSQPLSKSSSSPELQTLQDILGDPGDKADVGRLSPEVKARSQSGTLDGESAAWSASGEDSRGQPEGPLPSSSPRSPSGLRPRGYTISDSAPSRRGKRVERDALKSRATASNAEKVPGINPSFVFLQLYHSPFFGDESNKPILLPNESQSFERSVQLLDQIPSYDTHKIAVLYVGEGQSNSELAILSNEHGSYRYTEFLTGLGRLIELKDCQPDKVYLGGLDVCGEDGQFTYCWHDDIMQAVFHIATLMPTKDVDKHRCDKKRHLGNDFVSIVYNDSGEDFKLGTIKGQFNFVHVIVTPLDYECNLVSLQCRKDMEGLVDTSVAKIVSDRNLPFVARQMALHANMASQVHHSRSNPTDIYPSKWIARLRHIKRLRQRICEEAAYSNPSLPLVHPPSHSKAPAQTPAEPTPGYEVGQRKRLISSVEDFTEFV
UniProt O95433: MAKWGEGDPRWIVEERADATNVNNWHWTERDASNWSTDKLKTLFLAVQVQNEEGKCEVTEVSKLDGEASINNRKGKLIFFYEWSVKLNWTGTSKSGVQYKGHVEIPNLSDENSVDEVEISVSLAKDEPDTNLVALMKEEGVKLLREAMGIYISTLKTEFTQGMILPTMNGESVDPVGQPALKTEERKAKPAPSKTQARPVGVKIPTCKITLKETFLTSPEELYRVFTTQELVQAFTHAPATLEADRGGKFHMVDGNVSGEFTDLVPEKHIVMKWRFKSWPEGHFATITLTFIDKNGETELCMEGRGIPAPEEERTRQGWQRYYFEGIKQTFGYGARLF
UniProt Q61037: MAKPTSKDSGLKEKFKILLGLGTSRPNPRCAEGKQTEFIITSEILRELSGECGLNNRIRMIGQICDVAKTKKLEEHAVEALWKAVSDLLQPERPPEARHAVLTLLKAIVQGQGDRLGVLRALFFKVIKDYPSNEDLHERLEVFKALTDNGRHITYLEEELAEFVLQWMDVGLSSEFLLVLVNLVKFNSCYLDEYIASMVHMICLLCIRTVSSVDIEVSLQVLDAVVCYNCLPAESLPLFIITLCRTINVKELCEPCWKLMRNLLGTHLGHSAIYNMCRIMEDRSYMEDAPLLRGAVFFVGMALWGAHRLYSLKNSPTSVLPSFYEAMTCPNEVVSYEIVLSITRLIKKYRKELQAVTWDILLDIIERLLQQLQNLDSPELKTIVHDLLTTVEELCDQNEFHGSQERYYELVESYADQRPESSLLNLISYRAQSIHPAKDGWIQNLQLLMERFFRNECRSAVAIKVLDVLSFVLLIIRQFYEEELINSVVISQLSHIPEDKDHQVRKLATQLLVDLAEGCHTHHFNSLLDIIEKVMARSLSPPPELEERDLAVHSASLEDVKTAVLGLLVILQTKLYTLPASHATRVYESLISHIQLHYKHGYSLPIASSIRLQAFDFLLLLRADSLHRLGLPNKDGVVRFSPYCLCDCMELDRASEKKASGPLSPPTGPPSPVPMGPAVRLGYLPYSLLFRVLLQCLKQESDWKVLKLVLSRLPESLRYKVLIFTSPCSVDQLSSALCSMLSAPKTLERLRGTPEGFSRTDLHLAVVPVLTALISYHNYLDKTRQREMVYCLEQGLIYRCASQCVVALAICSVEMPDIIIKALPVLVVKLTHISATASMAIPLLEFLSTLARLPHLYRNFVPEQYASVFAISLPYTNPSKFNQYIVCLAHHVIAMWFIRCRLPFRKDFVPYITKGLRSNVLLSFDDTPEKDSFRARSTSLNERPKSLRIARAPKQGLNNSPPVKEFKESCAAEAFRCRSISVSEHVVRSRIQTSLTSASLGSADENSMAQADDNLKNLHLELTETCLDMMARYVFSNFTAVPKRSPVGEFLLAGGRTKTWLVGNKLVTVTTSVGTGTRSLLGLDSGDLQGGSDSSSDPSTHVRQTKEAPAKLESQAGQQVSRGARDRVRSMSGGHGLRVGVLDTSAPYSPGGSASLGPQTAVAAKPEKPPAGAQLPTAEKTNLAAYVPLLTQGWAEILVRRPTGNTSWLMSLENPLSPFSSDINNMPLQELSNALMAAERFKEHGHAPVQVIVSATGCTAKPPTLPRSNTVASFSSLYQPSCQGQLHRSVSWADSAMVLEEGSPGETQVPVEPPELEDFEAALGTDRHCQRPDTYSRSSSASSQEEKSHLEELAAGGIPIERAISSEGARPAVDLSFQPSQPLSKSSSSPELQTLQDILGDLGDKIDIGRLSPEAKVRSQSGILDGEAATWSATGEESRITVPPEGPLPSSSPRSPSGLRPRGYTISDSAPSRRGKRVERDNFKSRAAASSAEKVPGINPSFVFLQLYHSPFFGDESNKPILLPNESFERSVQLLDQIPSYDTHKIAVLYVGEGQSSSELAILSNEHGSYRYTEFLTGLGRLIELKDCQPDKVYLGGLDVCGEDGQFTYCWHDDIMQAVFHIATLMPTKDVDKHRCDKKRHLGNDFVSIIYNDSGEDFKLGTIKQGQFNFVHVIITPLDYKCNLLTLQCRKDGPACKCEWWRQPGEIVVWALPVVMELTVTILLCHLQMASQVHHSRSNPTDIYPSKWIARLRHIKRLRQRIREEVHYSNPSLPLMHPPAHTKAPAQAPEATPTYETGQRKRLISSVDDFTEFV
UniProt P04150: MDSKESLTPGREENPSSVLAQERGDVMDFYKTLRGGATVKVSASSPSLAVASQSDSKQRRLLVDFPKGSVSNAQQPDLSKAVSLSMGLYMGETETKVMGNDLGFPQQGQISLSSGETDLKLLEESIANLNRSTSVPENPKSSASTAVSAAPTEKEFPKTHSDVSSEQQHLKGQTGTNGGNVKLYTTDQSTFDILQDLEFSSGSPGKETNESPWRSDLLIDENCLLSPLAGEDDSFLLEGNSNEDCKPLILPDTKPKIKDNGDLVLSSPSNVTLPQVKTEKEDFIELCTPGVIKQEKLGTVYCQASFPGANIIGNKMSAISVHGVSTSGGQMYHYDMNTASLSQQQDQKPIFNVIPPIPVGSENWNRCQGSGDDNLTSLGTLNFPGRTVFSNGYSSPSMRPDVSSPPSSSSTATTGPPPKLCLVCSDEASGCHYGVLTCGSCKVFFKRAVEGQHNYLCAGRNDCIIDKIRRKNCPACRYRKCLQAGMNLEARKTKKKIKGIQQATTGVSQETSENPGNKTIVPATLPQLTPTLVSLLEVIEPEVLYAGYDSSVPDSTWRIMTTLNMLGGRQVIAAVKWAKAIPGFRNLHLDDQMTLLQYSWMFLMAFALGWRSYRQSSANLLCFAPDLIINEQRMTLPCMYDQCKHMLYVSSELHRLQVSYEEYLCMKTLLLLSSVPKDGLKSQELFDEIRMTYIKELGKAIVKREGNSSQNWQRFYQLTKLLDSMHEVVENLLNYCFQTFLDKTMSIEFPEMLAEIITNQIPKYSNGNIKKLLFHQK

Legend:
[1] = target: Tsc2 (tuberin) (human (endogenous in HEK293)) (UniProt P49815); experiment: co-IP; endogenous Tsc2 immunoprecipitated from HEK293 lysate with anti-Tsc2 antibody (IgG control); immunoblot
[2] = target: T1, Tsc1 (hamartin) (human (endogenous in HEK293)) (UniProt Q92574); experiment: co-IP; endogenous Tsc1 immunoprecipitated from HEK293 lysate with anti-Tsc1 antibody (IgG control); immunoblot
T1 sequence: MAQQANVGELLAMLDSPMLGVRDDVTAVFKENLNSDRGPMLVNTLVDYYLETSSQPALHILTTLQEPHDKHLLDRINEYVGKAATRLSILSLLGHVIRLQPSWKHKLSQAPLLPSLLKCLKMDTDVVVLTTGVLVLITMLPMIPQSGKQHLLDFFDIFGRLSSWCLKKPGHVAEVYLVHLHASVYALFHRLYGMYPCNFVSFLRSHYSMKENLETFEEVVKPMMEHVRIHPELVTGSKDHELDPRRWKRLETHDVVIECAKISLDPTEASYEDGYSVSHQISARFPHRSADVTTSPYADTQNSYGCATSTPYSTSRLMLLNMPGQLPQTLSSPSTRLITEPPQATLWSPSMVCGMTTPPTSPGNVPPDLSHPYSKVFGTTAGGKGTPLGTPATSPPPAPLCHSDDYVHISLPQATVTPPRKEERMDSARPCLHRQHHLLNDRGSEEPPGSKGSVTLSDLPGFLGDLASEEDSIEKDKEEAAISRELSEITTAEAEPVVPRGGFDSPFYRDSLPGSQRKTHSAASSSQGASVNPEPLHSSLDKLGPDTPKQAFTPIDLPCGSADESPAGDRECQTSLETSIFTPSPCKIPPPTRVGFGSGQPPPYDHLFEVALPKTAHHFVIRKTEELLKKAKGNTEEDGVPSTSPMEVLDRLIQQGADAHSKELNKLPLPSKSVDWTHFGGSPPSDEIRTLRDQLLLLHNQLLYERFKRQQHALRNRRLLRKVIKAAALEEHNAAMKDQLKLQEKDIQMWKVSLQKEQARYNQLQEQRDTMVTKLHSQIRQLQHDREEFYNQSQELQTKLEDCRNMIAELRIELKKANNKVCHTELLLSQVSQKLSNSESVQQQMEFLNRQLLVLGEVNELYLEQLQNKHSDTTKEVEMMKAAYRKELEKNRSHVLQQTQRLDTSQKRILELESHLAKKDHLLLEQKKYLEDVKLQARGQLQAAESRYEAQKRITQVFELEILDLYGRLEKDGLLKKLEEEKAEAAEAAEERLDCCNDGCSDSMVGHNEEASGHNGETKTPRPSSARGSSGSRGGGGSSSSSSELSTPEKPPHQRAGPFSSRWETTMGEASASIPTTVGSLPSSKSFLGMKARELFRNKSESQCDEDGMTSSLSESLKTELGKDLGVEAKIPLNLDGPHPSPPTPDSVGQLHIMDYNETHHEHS

Tsc1-D-FLAG = target: T2, Tsc1-D-FLAG (UniProt Q92574); experiment: co-IP; FLAG-tagged protein transiently expressed in HEK293, immunoprecipitated with anti-FLAG M2 affinity gel; endogenous partners by immunoblot; empty vector control
T2 sequence: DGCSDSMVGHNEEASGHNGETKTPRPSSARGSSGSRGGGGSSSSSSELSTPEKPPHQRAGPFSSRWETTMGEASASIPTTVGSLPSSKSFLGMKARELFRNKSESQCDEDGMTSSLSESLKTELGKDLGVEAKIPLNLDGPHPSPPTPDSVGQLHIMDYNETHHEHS

L117P-Tsc1-HA = target: T3, L117P-Tsc1-HA (UniProt Q92574); experiment: co-IP; L117P-Tsc1-HA (6 μg plasmid) transiently expressed in Tsc1−/− MEF cells and immunoprecipitated; immunoblot
T3 sequence: T1 sequence with L117P

Aha1 (from UniProt O95433 1-338)
binding [1]: no binding | binding [2]: no binding | binding (Tsc1-D-FLAG): no binding

HOP (from UniProt P31948 1-543)
binding [1]: binds | binding [2]: no binding

Raf-1 (from UniProt P04049 1-648)
binding [2]: binds

Tsc2 (MEF cells) (from UniProt Q61037 1-1814)
binding (L117P-Tsc1-HA): binds

glucocorticoid receptor (GR) (from UniProt P04150 1-777)
binding [2]: binds
